# Test results reported in PubChem BioAssay (Tox21).
# Where “and” joins values, the source holds several entries; their conditions need not be identical. Identical values can stand only once. Inconclusive means that the source gave no clear call. Such entries were picked first, then a sample of the others. Entries that show only a call come without a potency. For some of these results: Potencies beside an inconclusive call are fits to weak or partial responses and may not hold up. Calls of active or inactive are those of the source. Unless noted, the call rests on the fitted dose curve; in most records, active means well fitted curve in the direction sought with a large enough effect in the repeat runs; inconclusive means weak or mixed curves; inactive means no such curve, though single readings can be large; an effect the other way counts as inactive or inconclusive.
# Legend:
# [1] = biological target: Bile acid receptor (Homo sapiens) (UniProt Q96RI1); assay: qHTS assay to identify small molecule agonists of the farnesoid-X-receptor (FXR) signaling pathway (AID 743220; active means well fitted activation curve with a large enough effect in the signal ratio in the repeat runs, not every such curve was filed as active; inconclusive means weak or mixed curves, or effect the other way; the % refers to the signal ratio); conditions: HEK293T FXR-UAS-bla, beta-lactamase FRET ratio, 16 h; activation: at 62.6 µM (top of the series)
# Procedure, shortened: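 FXR-UAS-bla HEK 293T cells carrying a UAS-driven beta-lactamase reporter were plated for 5 h at 37C/5% CO2, then exposed to DMSO-dissolved Tox21 10K compounds for 16 h at 37C. A LiveBLAzer B/G FRET substrate was loaded for 2 h at room temperature before fluorescence reading.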
# [2] = qHTS assay for small molecule agonists of the antioxidant response element (ARE) signaling pathway - cell viability counter screen (AID 743203; calls by dose curve; further: nearly all actives have a fitted effect of over 55% in size; further: potency means the concentration at half of the fitted maximal effect); conditions: ARE-bla HepG2 viability, CellTiter-Glo luminescence, 16 h; viability change, negative = cytotoxic: at 73.3 µM (top of the series)
# Procedure, shortened: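 Parallel cytotoxicity read-out for the ARE-bla screen: HepG2 reporter cells, 16 hrs with compounds, then CellTiter-Glo luminescence.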
# [3] = qHTS RealTime-Glo MT Cell Viability Assay in HEK293 cells - 0 hour (AID 1224880); further: potency means the concentration at half of the fitted maximal effect; nearly all actives have a fitted effect of over 45% in size
# Procedure, shortened: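 HEK293 + NanoLuc + prosubstrate, 600 cells/well; 5 h, 37 C/5% CO2; compound 23 nL in DMSO by pintool; 37 C; luminescence read at 0, 8, 16, 24, 32 and 40 h time points.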
# [4] = qHTS assay to identify small molecule antagonists of the estrogen receptor beta (ER-beta) signaling pathway - cell viability counter screen (AID 1259382); further: nearly all actives have a fitted effect of over 55% in size; further: potency means the concentration at half of the fitted maximal effect
# Procedure, shortened: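 Readout: luminescence, CellTiter-Glo, same wells as bla assay. System: ER-beta-UAS-bla GripTite HEK293T, 2% charcoal-stripped FBS. Exposure: compounds plus 1nM 17-beta-estradiol, 16 hr, 37C.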
# [5] = qHTS RealTime-Glo MT Cell Viability Assay in HepG2 cells - 0 hour (AID 1224889); further: nearly all actives have a fitted effect of over 50% in size; further: potency means the concentration at half of the fitted maximal effect
# Procedure, shortened: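 Viability was tracked continuously by NanoLuc luminescence from prosubstrate reduced by living HepG2 cells, at successive time points over 40 h of compound exposure. Cells with reagent were preincubated 5 h at 37 °C before compound addition.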
# [6] = qHTS assay to identify small molecule antagonists of the androgen receptor (AR) signaling pathway using the MDA cell line in the presence of 0.5 nM R1881 - cell viability counter screen (AID 1259242); further: potency means the concentration at half of the fitted maximal effect; nearly all actives have a fitted effect of over 45% in size
# Procedure, shortened: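 Concentration-response screen of compounds for toxicity in MDA-kb2 reporter cells: 16 hr at 37C with 0.5 nM R1881, endpoint live-cell protease fluorescence measured in the reporter wells.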
# [7] = biological target: Glucocorticoid receptor (Homo sapiens) (UniProt P04150); assay: qHTS assay to identify small molecule agonists of the glucocorticoid receptor (GR) signaling pathway (AID 720691; active means well fitted activation curve with a large enough effect in the signal ratio in the repeat runs, not every such curve was filed as active; inconclusive means weak or mixed curves, or effect the other way; inactive means no such curve, though single readings can be large or run the other way; the % refers to the signal ratio; further: potency means the concentration at half of the fitted maximal effect); conditions: GR-bla HeLa, beta-lactamase reporter ratio, 18 h; activation: at 62.4 µM (top of the series) unless noted
# Procedure, shortened: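 Measures GR pathway activation through a GRE-beta-lactamase reporter stably integrated in HeLa cells, with 18 h compound treatment at 37 C and fluorescence detection using a FRET substrate.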
# [8] = biological target: Bile acid receptor (Homo sapiens) (UniProt Q96RI1); assay: qHTS assay to identify small molecule antagonists of the farnesoid-X-receptor (FXR) signaling pathway (AID 743217; active means well fitted inhibition curve with a large enough effect in the signal ratio in the repeat runs, not every such curve was filed as active; inconclusive means weak or mixed curves, or effect the other way; inactive means no such curve, though single readings can be large or run the other way; the % refers to the signal ratio); conditions: HEK293T FXR-UAS-bla, beta-lactamase ratio, CDCA-stimulated, 16 h; activity change, negative = inhibition: at 62.6 µM (top of the series) unless noted
# Procedure, shortened: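 Quantitative HTS, beta-lactamase reporter format: FXR-UAS-bla HEK 293T cells co-treated 16 h at 37 °C with compounds and 50 uM final chenodeoxycholic acid, then read by B/G FRET fluorescence.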
# [9] = biological target: Vitamin D3 receptor (Homo sapiens) (UniProt P11473); assay: qHTS assay to identify small molecule agonists of the vitamin D receptor (VDR) signaling pathway (AID 743222; calls by dose curve; further: potency means the concentration at half of the fitted maximal effect); conditions: HEK293T VDR-UAS-bla, beta-lactamase FRET ratio, 16 h; activation: at 63.5 µM (top of the series) unless noted
# Procedure, shortened: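 Using LiveBLAzer B/G FRET detection, agonism was scored in VDR-bla cells exposed overnight (16 h, 37C) to DMSO-dissolved compounds; substrate incubation was 2 h at room temperature.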
# [10] = qHTS assay to identify small molecule antagonists of the estrogen related receptor (ERR) signaling pathway from Tox21 library (AID 1224848); further: nearly all actives have a fitted effect of over 50% in size; further: potency means the concentration at half of the fitted maximal effect
# Procedure, shortened: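 Luciferase luminescence (ONE-Glo, 30 min room temperature) was the read-out. Cells of the NTP-supplied ERR line, 2,000 per well, were given 6 h at 37 C before compound addition in DMSO and 18 h exposure at 37 C.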
# [11] = A CellTox Green Cytotoxicity Assay to monitor cytotoxicity in HEK293 cells - 24 hour (AID 1224875); further: potency means the concentration at half of the fitted maximal effect; nearly all actives have a fitted effect of over 45% in size
# Procedure, shortened: (§1)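 Tox21 screen in HEK293: membrane-impermeant cyanine dye fluoresces on binding dead-cell DNA; compound pinned 5 h post-seeding, plates held at 37 C, signal read repeatedly through 40 h.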
# [12] = A CellTox Green Cytotoxicity Assay to monitor cytotoxicity in HEK293 cells - 16 hour (AID 1224888); further: nearly all actives have a fitted effect of over 35% in size; further: potency means the concentration at half of the fitted maximal effect
# Procedure, shortened: as §1
# [13] = biological target: Estrogen receptor (Homo sapiens) (UniProt P03372); assay: qHTS assay to identify small molecule antagonists of the estrogen receptor alpha (ER-alpha) signaling pathway using the BG1 cell line in the presence of 0.1 nM 17-beta-estradiol (AID 1259244); further: nearly all actives have a fitted effect of over 50% in size; further: potency means the concentration at half of the fitted maximal effect
# Procedure, shortened: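 Compounds were tested against 0.1 nM (final) 17beta-estradiol in VM7Luc4E2 cells, which express full-length ER-alpha and an ERE-luciferase reporter; luminescence was recorded following 22 h exposure.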
# [14] = biological target: Androgen receptor (Homo sapiens) (UniProt P10275); assay: qHTS assay to identify small molecule agonists of the androgen receptor (AR) signaling pathway (AID 743036; active means well fitted activation curve with a large enough effect in the signal ratio in the repeat runs, with a control signal flat, not every such curve was filed as active; inconclusive means weak or mixed curves, or effect the other way; inactive means no such curve, though single readings can be large or run the other way; the % refers to the signal ratio; further: potency means the concentration at half of the fitted maximal effect); conditions: HEK293 AR-UAS-bla GripTite, beta-lactamase FRET ratio, 16 h; activation: at 62.4 µM (top of the series) unless noted
# Procedure, shortened: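 AR-UAS-bla HEK293 cells, plated 4 h before dosing, were treated with compound for 16 h at 37C. beta-Lactamase reporter read after 2 h with LiveBLAzer B/G FRET substrate at room temperature.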
# [15] = A CellTox Green Cytotoxicity Assay to monitor cytotoxicity in HEK293 cells - 40 hour (AID 1224871); further: nearly all actives have a fitted effect of over 45% in size
# Procedure, shortened: as §1
# [16] = A CellTox Green Cytotoxicity Assay to monitor cytotoxicity in HEK293 cells - 32 hour (AID 1224881); further: nearly all actives have a fitted effect of over 40% in size
# Procedure, shortened: as §1
# [17] = qHTS assay for small molecules that induce genotoxicity in human embryonic kidney cells expressing luciferase-tagged ATAD5 - cell viability (AID 651634; calls by dose curve; further: potency means the concentration at half of the fitted maximal effect; nearly all actives have a fitted effect of over 25% in size)
# Procedure, shortened: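 15.5 hr compound or vehicle exposure of HEK293T cells expressing luciferase-tagged ATAD5 at 37C; live-cell protease activity is read by fluorescence after 30 min of CellTiter-Fluor.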
# [18] = qHTS assay to identify small molecule antagonists of the androgen receptor (AR) signaling pathway using the MDA cell line - cell viability counter screen (AID 743041; further: nearly all actives have a fitted effect of over 45% in size; further: potency means the concentration at half of the fitted maximal effect); conditions: MDA-kb2 viability, CellTiter-Fluor, 16 h, cells co-treated with R1881 androgen agonist; viability change, negative = cytotoxic: at 70.3 µM (top of the series)
# Procedure, shortened: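 Viability read by CellTiter-Fluor fluorescence in the same wells as the antagonist screen, added after 15.5 h of a 16 h, 37C exposure. Human breast carcinoma MDA-kb2 AR-luc cells, compounds co-dosed with agonist R1881.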
# Tags describe the fitted curve by direction and shape or compound fluorescence and quenching.
# Sequence of UniProt P03372 (P03372 whole entry, looked up): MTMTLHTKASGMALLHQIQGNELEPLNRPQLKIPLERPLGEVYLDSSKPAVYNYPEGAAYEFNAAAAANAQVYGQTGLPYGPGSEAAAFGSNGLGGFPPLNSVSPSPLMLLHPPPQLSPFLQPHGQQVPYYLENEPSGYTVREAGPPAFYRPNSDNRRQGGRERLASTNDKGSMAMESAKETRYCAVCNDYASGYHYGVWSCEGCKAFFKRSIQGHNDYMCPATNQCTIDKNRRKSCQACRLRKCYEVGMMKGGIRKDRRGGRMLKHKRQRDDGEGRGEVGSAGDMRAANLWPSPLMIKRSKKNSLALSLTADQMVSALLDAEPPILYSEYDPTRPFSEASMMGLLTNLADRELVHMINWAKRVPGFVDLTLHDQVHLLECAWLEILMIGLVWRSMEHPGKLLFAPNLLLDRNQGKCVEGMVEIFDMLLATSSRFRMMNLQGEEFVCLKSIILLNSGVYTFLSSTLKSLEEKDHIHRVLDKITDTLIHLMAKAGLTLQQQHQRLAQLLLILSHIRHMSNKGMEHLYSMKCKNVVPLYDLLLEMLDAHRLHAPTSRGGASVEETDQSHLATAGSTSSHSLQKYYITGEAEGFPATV
# Sequence of UniProt P11473 (P11473 whole entry, looked up): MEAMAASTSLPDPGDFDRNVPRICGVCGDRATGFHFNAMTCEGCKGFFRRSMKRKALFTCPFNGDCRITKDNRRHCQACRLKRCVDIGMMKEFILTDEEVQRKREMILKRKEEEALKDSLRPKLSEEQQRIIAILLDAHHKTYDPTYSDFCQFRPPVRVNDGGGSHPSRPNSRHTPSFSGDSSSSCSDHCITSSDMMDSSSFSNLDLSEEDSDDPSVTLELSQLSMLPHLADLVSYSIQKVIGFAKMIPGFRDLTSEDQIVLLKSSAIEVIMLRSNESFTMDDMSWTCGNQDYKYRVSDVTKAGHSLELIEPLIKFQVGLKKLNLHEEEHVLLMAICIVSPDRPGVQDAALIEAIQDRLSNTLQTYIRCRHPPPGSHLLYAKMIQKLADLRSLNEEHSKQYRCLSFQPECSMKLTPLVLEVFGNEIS
# Sequence of UniProt Q96RI1 (Q96RI1 whole entry, looked up): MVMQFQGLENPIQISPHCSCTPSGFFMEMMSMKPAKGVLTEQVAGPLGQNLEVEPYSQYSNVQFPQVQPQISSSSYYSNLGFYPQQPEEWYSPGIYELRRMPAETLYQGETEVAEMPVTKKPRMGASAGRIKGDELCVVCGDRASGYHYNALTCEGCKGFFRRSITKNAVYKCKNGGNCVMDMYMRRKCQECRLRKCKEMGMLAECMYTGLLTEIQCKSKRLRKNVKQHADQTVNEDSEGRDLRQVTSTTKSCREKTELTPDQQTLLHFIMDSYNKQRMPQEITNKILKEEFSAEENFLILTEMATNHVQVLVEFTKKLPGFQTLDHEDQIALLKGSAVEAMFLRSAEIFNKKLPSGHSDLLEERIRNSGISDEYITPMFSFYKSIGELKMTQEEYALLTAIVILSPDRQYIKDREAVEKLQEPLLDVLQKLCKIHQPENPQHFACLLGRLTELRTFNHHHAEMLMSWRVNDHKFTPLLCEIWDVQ
# Sequence of UniProt P04150 (P04150 whole entry, looked up): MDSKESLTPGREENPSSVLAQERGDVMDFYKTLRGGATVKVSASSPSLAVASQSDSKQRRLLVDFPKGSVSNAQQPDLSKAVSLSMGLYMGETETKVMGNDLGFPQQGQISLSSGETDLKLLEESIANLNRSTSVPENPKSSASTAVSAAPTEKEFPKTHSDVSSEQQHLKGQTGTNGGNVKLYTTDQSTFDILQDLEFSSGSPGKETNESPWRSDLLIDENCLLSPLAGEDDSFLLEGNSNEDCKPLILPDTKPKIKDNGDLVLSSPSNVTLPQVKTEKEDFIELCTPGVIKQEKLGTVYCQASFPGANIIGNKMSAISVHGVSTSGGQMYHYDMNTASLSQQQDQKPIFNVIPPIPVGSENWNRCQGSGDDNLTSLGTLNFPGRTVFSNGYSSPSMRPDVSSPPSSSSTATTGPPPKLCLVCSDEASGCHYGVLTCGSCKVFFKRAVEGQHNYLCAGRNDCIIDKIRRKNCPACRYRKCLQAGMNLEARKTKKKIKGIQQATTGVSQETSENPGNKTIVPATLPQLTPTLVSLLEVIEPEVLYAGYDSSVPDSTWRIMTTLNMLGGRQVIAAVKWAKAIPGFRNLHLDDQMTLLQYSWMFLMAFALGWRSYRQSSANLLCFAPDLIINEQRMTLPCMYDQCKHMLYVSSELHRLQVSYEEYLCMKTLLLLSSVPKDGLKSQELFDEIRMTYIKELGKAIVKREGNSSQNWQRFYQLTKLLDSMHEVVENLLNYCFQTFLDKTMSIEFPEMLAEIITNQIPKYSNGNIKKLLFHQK
# Sequence of UniProt P10275 (P10275 whole entry, looked up): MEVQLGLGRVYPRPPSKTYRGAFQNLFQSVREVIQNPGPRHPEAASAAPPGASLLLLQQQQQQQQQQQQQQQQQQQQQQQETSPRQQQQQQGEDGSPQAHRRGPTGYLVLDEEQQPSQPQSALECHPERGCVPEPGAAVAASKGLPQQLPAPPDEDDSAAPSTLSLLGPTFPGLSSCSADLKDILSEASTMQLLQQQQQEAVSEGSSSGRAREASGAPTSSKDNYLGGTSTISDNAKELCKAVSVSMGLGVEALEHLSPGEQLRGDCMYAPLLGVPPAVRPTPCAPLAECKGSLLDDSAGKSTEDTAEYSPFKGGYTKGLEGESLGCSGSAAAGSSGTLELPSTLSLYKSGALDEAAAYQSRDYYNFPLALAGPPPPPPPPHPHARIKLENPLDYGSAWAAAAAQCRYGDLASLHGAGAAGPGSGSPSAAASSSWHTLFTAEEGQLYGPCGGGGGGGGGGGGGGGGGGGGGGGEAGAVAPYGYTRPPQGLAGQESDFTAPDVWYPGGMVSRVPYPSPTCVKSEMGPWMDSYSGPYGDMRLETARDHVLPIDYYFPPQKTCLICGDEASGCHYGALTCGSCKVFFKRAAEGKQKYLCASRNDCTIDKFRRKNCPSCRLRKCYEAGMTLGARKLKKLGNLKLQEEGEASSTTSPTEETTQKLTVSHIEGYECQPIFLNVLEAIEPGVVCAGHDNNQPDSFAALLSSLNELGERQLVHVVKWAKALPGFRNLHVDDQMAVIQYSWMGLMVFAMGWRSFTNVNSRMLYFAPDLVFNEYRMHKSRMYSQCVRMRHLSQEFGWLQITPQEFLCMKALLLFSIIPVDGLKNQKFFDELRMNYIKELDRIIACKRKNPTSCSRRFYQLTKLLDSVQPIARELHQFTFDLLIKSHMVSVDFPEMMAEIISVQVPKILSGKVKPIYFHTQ
smiles,measurement,setting,value
CCCBr,Potency,[1],inactive
O=c1[nH]oc2c1CCNC2,Potency,[2],inactive
CS(=O)(=O)NC(=O)c1cc(Oc2ccc(C(F)(F)F)cc2Cl)ccc1[N+](=O)[O-],Potency,[1],inactive
Oc1ccc(I)cc1,Potency,[3],"inconclusive: 34.7 µM [rising, partial curve]"
same,Potency,[4],inactive
O=[N+]([O-])c1cccc2c([N+](=O)[O-])cccc12,Potency,[3],"inconclusive: 43.9 µM [falling, partial curve, poor fit]"
same,Potency,[5],"inconclusive: 55.2 µM [cytotoxic, single point]"
same,Potency,[6],"inconclusive: 68.9 µM [cytotoxic, single point]"
same,Potency,[4],"inconclusive: 21.8 µM [cytotoxic, partial curve]"
CCCSP(=S)(OCC)Oc1ccc(SC)cc1 (stereo not given),Potency,[5],inactive
CCNC(=O)NC(=O)/C(C#N)=N/OC,Potency,[7],inconclusive: 55 µM [activator]
same,Potency,[8],inactive
same,Potency,[9],inactive
CCOc1ccc(N)cc1,activation,[1],inconclusive: 7.54%
same,Potency,[10],"inconclusive: 54.6 µM [inhibitor, partial curve] and inconclusive: 27.3 µM [inhibitor, partial curve, poor fit]"
C=CC#N,Potency,[2],inactive
same,Potency,[11],"inconclusive: 61.7 µM [activator, single point]"
same,Potency,[12],"inconclusive: 61.7 µM [activator, single point]"
same,Potency,[13],inactive
CCC1COC(Cn2cncn2)(c2ccc(Cl)cc2Cl)O1 (stereo not given),Potency,[12],inactive
same,Potency,[13],"inconclusive: 34.4 µM [inhibitor, partial curve]"
CCOP(=S)(S)OCC,Potency,[14],"inconclusive: 51.6 µM [rising, partial curve, poor fit]"
same,Potency,[8],inactive
same,Potency,[15],inactive
same,Potency,[16],inactive
ClCOCCl,Potency,[5],inactive
O=C(N/N=C/c1ccc([N+](=O)[O-])o1)c1cc([N+](=O)[O-])cc([N+](=O)[O-])c1O,Potency,[17],"inconclusive: 13.3 µM [falling, partial curve]"
same,Potency,[7],inactive
same,Potency,[18],"inconclusive: 33.5 µM [cytotoxic, single point]"
same,Potency,[6],"inconclusive: 7.5 µM [cytotoxic, full curve]"
Cc1cc(-c2cc(C)c(N)c(C)c2)cc(C)c1N,Potency,[4],"inconclusive: 54.6 µM [cytotoxic, partial curve, poor fit]"
CCCCC(CC)C(=O)Cl (stereo not given),Potency,[2],"inconclusive: 15.4 µM [rising, partial curve]"
same,Potency,[8],inactive
C[N+]1(C)CCCCC1,Potency,[14],inactive
CCOP(=S)(OCC)Oc1ccc(S(C)=O)cc1 (stereo not given),Potency,[9],inactive
same,Potency,[10],inactive
same,Potency,[5],"inconclusive: 30.9 µM [cytotoxic, partial curve, poor fit]"
O=[N+]([O-])c1ccc2c3c(cccc13)CC2,activation,[7],inconclusive: -11%
O=C(N[C@H]1CN2CCC1CC2)c1ccc2c(c1)OCCO2,Potency,[18],inactive
same,Potency,[9],inconclusive: 54.9 µM [activator]
